Molecules are shown by their SMILES. The whole screen tested about 150,000 compounds, of which about 540 (0.36%) showed an effect of 50% or more. Some of the results follow.

For this test, the system named is Plasmodium falciparum. Put plainly: Primary screen in NF54 nanoGlo assay, in single point, at 2uM, 72h; a lower Z score goes with more inhibition. It counts as functional, Erythrocyte. The settings on record: timepoint 72 hour.
As for `Cn1cccc1C(=O)N1CCC(n2cc(C(=O)N3CCCC3)nn2)CC1`, the % Inhibition (in general, the change of the read-out against control, counted positive when it falls) is reported as 2% and the Z score was -0.42.
For `Nc1nc(N[C@H]2CCN(Cc3ccccc3)C2)c2cn[nH]c2n1` the same measures were -2% and 0.47.
For `CCN(CC)CC(=O)Nc1ccc(Cl)cc1F` the same measures were 5% and -0.72.
The like results for `O=C(Nc1cc(F)cc2c1OCOC2)N1CC(=O)N2CCc3c(F)cccc3[C@@H]2C1` were, in that order, -29% and 3.47.
As to `CCN(C(=O)c1cnns1)C1CCCCC1C` (stereo not given), the “% Inhibition” value is recorded as 4% and the Z score was -0.59.
Consider `C[C@](O)(CCCO)CNc1cc(C(N)=O)ccn1`, for which the “% Inhibition” value is reported as 0% and the Z score is listed as -0.03.
`O=C(N[C@H]1CCc2ccccc21)c1cnccn1`: the “% Inhibition” value was -7% and the Z score was determined as 0.9.
For `O=C(CN1CCC[C@H](OCCO)C1)Nc1ccc(Cl)cn1` the same measures were -1% and 0.09.
For `CC(C)(C)c1ccc(C(=O)Nc2ccc3[nH]c(=O)oc3c2)cc1` the same measures were -5% and 0.66.
For `CCC(C)(C)C(=O)N1CCc2cnccc21` the same measures were 3% and -0.38.
With `CCCn1ccnc(NC2CCCC2)c1=O`, the “% Inhibition” value was found to be 2% and the Z score is recorded as -0.39.
The like results for `CC(C)C[C@H](NC(=O)OC(C)(C)C)C(=O)N(C)Cc1cnccn1` were, in that order, 4% and -0.55.
The like results for `CC[C@H](C)NC(=O)Cn1c(=O)c2nnc(C(C)C)n2c2ccccc21` were, in that order, -3% and 0.36.
For `Cc1cc(N2CCC(O)CC2)nc(N2CCC(O)CC2)c1C#N` the same measures were 34% and -4.9.
Consider `COc1ccc([C@H]2CC(=O)Nc3cccc4c3c2cn4Cc2ccccc2)cc1`, for which the “% Inhibition” value was -4% and the Z score is reported as 0.51.
For `O=C(C[C@H]1CCOC2(CCN(C(=O)c3cccc(F)c3)CC2)C1)N1CCCC1` the same measures were -4% and 0.69.
For `Cc1ncccc1OC(=O)OC(C)(C)C` the same measures were -11% and 1.8.
The like results for `O=C(NC1CCCCC1)c1nnc(Cc2cccc(F)c2)o1` were, in that order, -7% and 1.26.
As for `CCn1nc(C)cc1C(=O)N1CCC[C@H](C(=O)c2cccc(OC)c2)C1`, the “% Inhibition” value is listed as -4% and the Z score was found to be 0.4.
`CCCC1(CO)CCCN1C[C@@H](O)c1ccccc1` (stereo not given in full): the “% Inhibition” value turned out to be 1% and the Z score is recorded as -0.2.
The like results for `CCOc1nc(-c2ccc(C(F)(F)F)cc2)n(-c2ccc(NC(=O)c3cccs3)cc2)n1` were, in that order, -13% and 1.42.
The like results for `O=C(N[C@H]1CCN(Cc2ccc(F)cc2Cl)C[C@@H]1O)c1cnccn1` were, in that order, -6% and 0.9.
As for `Cc1nc(-c2cccs2)sc1C(=O)N(C)Cc1ccc(F)cc1`, the “% Inhibition” value is reported as -1% and the Z score was 0.07.
As to `CC(=O)NCCCOc1cccc(C)c1F`, the “% Inhibition” value is reported as -5% and the Z score is recorded as 0.91.
As to `CC1CN(C(=O)Nc2ccc(-c3ncco3)cc2)CC(CO)O1` (stereo not given), the “% Inhibition” value is -11% and the Z score worked out at 1.47.
The like results for `O=C(Cc1cccc2ccccc12)Nc1sc2c(c1C(=O)O)CCCC2` were, in that order, -9% and 1.23.
For `CN1CCCN(CC(=O)N2CC[C@@](O)(c3ccccc3)[C@H]3CCCC[C@H]32)CC1` the same measures were -5% and 0.96.
In the case of `CC(C(=O)Nc1nccs1)N1CCC(C)C2(CCC2)C1` (stereo not given), the “% Inhibition” value is listed as -1% and the Z score came out at 0.24.
For `COc1ccc(OC)c([C@H](C)Nc2ccc3c(c2)C(=O)NC3)c1` the same measures were -6% and 0.79.
The like results for `COc1ccc([C@H](Cc2ccc(F)cc2)NCc2cncs2)cc1` were, in that order, -4% and 0.49.
The like results for `O=c1ccc(CN2CCN(c3ccccc3)CC2)cn1CC1CC1` were, in that order, -18% and 1.95.
As to `Cc1ccc(NC(=O)Cc2c(C)nc(C)[nH]c2=O)cc1`, the “% Inhibition” value is -4% and the Z score came out at 0.37.
For `N#CCC1(Cn2c(=O)ccn2-c2ccccc2)CC1` the same measures were 3% and -0.57.
For `O=C(COc1cccc(Cl)c1)NC1CC2CCC1C2` (stereo not given) the same measures were -9% and 1.2.
For `Cc1cc(C)n(C2CN(C3CCN(c4ccc5c(c4)OCO5)CC3)C2)n1` the same measures were -4% and 0.57.
Take `CC(C)[C@@H](C)CC(=O)N1CCC(O)(C(N)=O)CC1`: the “% Inhibition” value is listed as -3% and the Z score worked out at 0.42.
The like results for `Cc1ccnc(N2C[C@H](COc3ccccc3)OC(C)(C)C2)c1C#N` were, in that order, -13% and 1.57.
For the compound `COCC1CCN(C[C@]2(O)CCCN(Cc3ccccc3F)C2=O)CC1`, the “% Inhibition” value is recorded as -6% and the Z score worked out at 0.9.
For `CS(=O)(=O)N1C[C@@H]2CCCN2c2cc(C(F)(F)F)ccc21` the same measures were 38% and -1.33.
The like results for `CCCN(Cc1c(C)nn(-c2ccccc2)c1Oc1ccc(C)cc1)C[C@H](O)c1ccccc1` were, in that order, -5% and 0.94.
For `CN1CCCC2(CCN(C(=O)COc3ccccc3)CC2)[C@H]1C(=O)N1CCCC1` the same measures were -5% and 1.01.
On to `Cc1noc(CS(=O)(=O)Cc2csc(-c3cccs3)n2)n1`, for which the “% Inhibition” value is -10% and the Z score was found to be 0.97.
For `C[C@@H](N)C(=O)N1CCc2cc(-c3ccccc3)ccc21` the same measures were 38% and -1.2.
For `Cc1nnc2c(N3CCN(C(=O)CCc4cccc(Cl)c4)CC3)nccn12` the same measures were -12% and 1.99.
The like results for `Cc1ccc(N2C(=O)c3ccccc3N(Cc3ccccc3)[C@@H]2c2ccc(OCC#N)cc2)cc1` were, in that order, -9% and 1.38.
As to `CN=C(NCCc1ncc(C)s1)N[C@@H](C)c1ccc(C)o1`, the “% Inhibition” value is 1% and the Z score is on record as -0.24.
Turning to `O=C(CN1N=C(c2nc(-c3ccc4c(c3)OCO4)no2)CCC1=O)N1CCN(c2ccccc2)CC1`, the “% Inhibition” value is reported as -7% and the Z score was found to be 1.05.
For `CCn1ncc2ccc(NC3CCC4(CC3F)OCCO4)cc21` (stereo not given) the same measures were -1% and 0.1.
The like results for `CN(C(=O)CN1CCC(c2nnc3cnccn23)CC1)c1nccs1` were, in that order, -5% and 0.76.
Take `O=C(Nc1ccon1)C1CN(C(=O)COc2ccccc2F)C1`: the “% Inhibition” value is recorded as -11% and the Z score stood at 1.48.
For `Cc1oc(-c2ccno2)cc1S(=O)(=O)Nc1ccccc1F` the same measures were -10% and 1.16.
For `O=C(c1cccc(S(=O)(=O)N2CCCCC2)c1)N1CCc2ccccc2C1` the same measures were 4% and -0.53.
Take `O=C(NCc1ccc(Cl)cc1Cl)[C@H]1CCCN(C(=O)c2cccs2)C1`: the “% Inhibition” value was determined as 8% and the Z score is -1.53.
`CC(C)C[C@H](NC(=O)c1cccc(F)c1)C(=O)N(C)C`: the “% Inhibition” value is reported as -6% and the Z score is 1.09.
The like results for `Cc1ccnc(NC(=O)c2ccc(Oc3ccc(F)cc3Br)nc2)c1` were, in that order, 4% and -0.48.

For the origin of these results see ChEMBL document CHEMBL4888484, “Replenishing the malaria drug discovery pipeline: Screening and hit evaluation of the MMV Hit Generation Library 1 (HGL1) against asexual blood stage Plasmodium falciparum ,using a nano luciferase reporter read-out” (2022).
